Results: the supplement of paper PMC3334620
In all, about 33,000 sequences were measured (“E-score (-0.5 to 0.5)”: median about -0.012, highest 2% from about 0.29 on). This is one part of the list.

molecular target: T1, Ybr033w (UniProt P38073); experiment: PBM E-score (8-mer binding enrichment) (E-score (-0.5 to 0.5)); higher = stronger / more preferred TF binding; most listed sequences are background and not binding sites; conditions: protein concentration: 200 nM; construct: GST-full length
T1 sequence: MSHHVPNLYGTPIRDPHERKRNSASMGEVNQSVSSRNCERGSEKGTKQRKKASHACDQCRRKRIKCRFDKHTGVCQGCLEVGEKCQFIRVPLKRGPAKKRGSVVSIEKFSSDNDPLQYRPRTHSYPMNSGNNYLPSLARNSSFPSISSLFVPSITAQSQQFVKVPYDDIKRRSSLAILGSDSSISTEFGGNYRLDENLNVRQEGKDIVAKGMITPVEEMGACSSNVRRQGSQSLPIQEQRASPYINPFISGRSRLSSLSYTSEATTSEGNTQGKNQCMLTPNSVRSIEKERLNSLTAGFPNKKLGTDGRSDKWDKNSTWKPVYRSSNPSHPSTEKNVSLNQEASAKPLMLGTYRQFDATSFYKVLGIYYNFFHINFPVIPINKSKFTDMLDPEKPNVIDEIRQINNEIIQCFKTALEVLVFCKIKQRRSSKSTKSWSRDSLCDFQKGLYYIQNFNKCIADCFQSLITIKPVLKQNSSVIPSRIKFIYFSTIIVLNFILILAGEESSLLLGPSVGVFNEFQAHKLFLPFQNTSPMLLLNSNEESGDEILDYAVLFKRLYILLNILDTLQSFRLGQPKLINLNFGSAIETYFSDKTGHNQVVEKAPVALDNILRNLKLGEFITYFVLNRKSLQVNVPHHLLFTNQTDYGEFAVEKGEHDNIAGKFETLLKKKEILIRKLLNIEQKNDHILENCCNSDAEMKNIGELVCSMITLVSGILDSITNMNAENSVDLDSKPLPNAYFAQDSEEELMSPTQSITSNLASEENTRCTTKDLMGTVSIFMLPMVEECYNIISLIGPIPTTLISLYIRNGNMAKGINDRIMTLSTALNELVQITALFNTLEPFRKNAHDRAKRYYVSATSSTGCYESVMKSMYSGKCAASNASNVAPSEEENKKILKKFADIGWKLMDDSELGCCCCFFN
In short: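 E-scores (a modified Wilcoxon-Mann-Whitney statistic) were assigned by the Universal PBM Analysis Suite to every ungapped eight-base word pooled with its reverse complement. The input came from universal all-10-mer Agilent arrays made double-stranded by primer extension and probed with GST-tagged yeast transcription factors at about 100-200 nM. Fluorescent anti-GST detected bound protein, and masliner normalised the scans.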

| Sequence | PBM E-score |
| --- | --- |
| GAGGTCCC | -0.106 |
| ATATTACC | 0.227 |
| TACTAGTA | 0.377 |
| AATTATCG | 0.308 |
| TGCGCACA | -0.00097 |
| CGCGGGGC | -0.114 |
| GCTAGCAA | -0.211 |
| AGAAGAAA | 0.0907 |
| AATATAGC | 0.156 |
| GAGTTCGA | 0.0995 |
| AATCGGGG | -0.125 |
| GCTCTCGA | -0.0693 |
| ACATAGGA | -0.0823 |
| ACTAGAGC | -0.135 |
| CAGCCGCC | -0.209 |
| CGACTTAG | 0.0431 |
| AACGGCGT | -0.00651 |
| AGTACGAG | 0.0203 |
| GCTAACTA | 0.226 |
| ACTCTTCG | -0.00261 |
| GCCCTAAA | -0.297 |
| GCCCCTTA | -0.306 |
| ACTAACAT | 0.238 |
| GAGTTTAC | 0.131 |
| ACTCCAGT | 0.175 |

| Sequence | PBM E-score |
| --- | --- |
| CTACTGTC | -0.00043 |
| ACCAAACG | -0.166 |
| TGCCCAAA | -0.185 |
| AAGGTGGG | -0.188 |
| AACCTAAC | 0.136 |
| GGCATTTA | -0.141 |
| CCAGATAA | 0.00728 |
| AAGTGCCT | -0.246 |
| ACCCTGCG | -0.113 |
| ATGTGTAC | 0.0114 |
| AGCACTAC | -0.0548 |
| ATGAGCTG | 0.00037 |
| CAAGCAGA | 0.127 |
| ATAGCGCC | -0.0787 |
| ATTCGCCC | -0.175 |
| ATTAGCTA | 0.0575 |
| CAACCGGC | -0.0855 |
| AAACGGAA | 0.341 |
| GCGGAGGA | -0.249 |
| CCTATGGA | -0.0388 |
| CAACTAAC | 0.152 |
| CCAGACGC | -0.2 |
| ACGCGTGG | -0.279 |
| CCTGGTGC | -0.109 |
| AAAAAATT | 0.237 |

| Sequence | PBM E-score |
| --- | --- |
| AGTCCCAG | -0.276 |
| GGGCCGCA | -0.247 |
| CCGTTAAC | -0.11 |
| CTCCTTGA | -0.136 |
| AGTTGGAC | -0.0273 |
| ACGAGTAT | 0.066 |
| CACCAGGG | -0.279 |
| CATGTTGG | 0.0198 |
| GGCAATCA | -0.0475 |
| ACCAAGCT | 0.144 |
| AAATGAAG | 0.133 |
| ACAAACCA | -0.0763 |
| ACTGCTGA | -0.0957 |
| AACGCGCA | -0.0574 |
| AGATCAAA | 0.111 |
| CCTGTAGA | 0.00718 |
| GCCATCTA | -0.0362 |
| AGAATAAG | 0.14 |
| ATACCCTG | -0.0579 |
| ACTCCACG | -0.183 |
| ATAATAAC | 0.159 |
| CTGAGTAA | 0.183 |
| CTAAGCCA | -0.109 |
| CGTTGAAG | -0.0551 |
| TACGTGGA | 0.0301 |

| Sequence | PBM E-score |
| --- | --- |
| CCTTGTCC | -0.241 |
| AGTCAGCA | -0.112 |
| ACAGGGGA | -0.174 |
| AGCTTAAT | 0.193 |
| CTCTGCTC | -0.16 |
| CCTCTAGA | 0.0207 |
| GCGAGTAC | 0.0326 |
| ATACTTGC | 0.125 |
| CCGAGGCC | -0.37 |
| ATACTTCC | 0.204 |
| CAACTGTC | -0.0864 |
| ACGTGGGG | -0.214 |
| ATACGAGA | 0.0345 |
| GAATACTC | 0.0489 |
| GACTGGGC | -0.252 |
| GTCGATGA | -0.0835 |
| CGATCTGC | -0.249 |
| GCGAGGTA | -0.127 |
| AGGTCAGA | -0.123 |
| TTAGTCAA | 0.0843 |
| ATGCTCGG | -0.0455 |
| CTCCCGGC | -0.197 |
| AAGTGGAT | 0.046 |
| CGTTGTCA | -0.0639 |
| AAACGTCT | 0.0623 |

| Sequence | PBM E-score |
| --- | --- |
| AGGCTTTG | -0.215 |
| CCGTGACA | -0.219 |
| CGGGTGGC | -0.229 |
| GATCTGTA | 0.00583 |
| GTATCTGA | 0.0757 |
| AGGTCATG | -0.121 |
| CATTCCAG | 0.0779 |
| GGAACCCA | -0.306 |
| AGTGTGGC | -0.0881 |
| ATGTGGCC | -0.0631 |
| CATTGTTA | -0.015 |
| CTCTCTGA | -0.281 |
| CTAACCGA | -0.0372 |
| CATTATGG | -0.117 |
| CGCATGGA | -0.0379 |
| CCTTCGCG | -0.0347 |
| ATCTTGTC | 0.053 |
| GACTGGCA | -0.2 |
| CAATTGGG | -0.162 |
| AGCAATCG | 0.158 |
| CTGGGCGC | -0.222 |
| AGGATTGA | 0.254 |
| AGAACCAA | 0.197 |
| ACCCAATC | 0.0765 |
| CCCGCTCA | -0.208 |

| Sequence | PBM E-score |
| --- | --- |
| ATGGCCGG | -0.149 |
| AGAAGGAG | -0.202 |
| AACGCCAA | -0.0341 |
| GAGTGATA | 0.11 |
| AGGGAAAT | 0.00233 |
| CGGCAACC | -0.0886 |
| CAGTCTAC | -0.142 |
| ACTACTTC | 0.0442 |
| TGCTCTAA | -0.115 |
| GATATATA | 0.289 |
| CGCTATGC | -0.226 |
| AGGCGCAG | -0.224 |
| ACACCACC | -0.233 |
| GGCTTCTA | -0.0924 |
| ATTCTGTG | 0.105 |
| GCCATTCC | -0.122 |
| TAACATAA | 0.265 |
| GACCGCTA | -0.166 |
| GAATGCTA | -0.159 |
| GGTATAAA | 0.0927 |
| CCTTCATC | -0.0821 |
| ATTGGTTC | 0.232 |
| ATTGCGCA | 0.037 |
| ATACGGTC | -0.132 |
| GGACTCGA | -0.25 |

| Sequence | PBM E-score |
| --- | --- |
| TACCACGA | 0.0596 |
| CGAAGCTC | -0.147 |
| GATCGAGA | -0.0805 |
| CAAAACCG | 0.157 |
| AAGCGAGG | -0.193 |
| CGGAATGA | 0.134 |
| AGACAGAG | -0.156 |
| ATGCAGCC | -0.119 |
| CGACACAC | -0.0321 |
| CAAGCGTG | 0.0357 |
| TCTATACA | 0.0515 |
| GACTAAAC | -0.239 |
| ACCCCCCA | -0.391 |
| CTGTACTC | -0.144 |
| CGACTGAA | 0.0567 |
| ACAATGGA | 0.235 |
| ACGCTTCC | -0.215 |
| CGCTCCGA | 0.0417 |
| GGTGGCCA | -0.292 |
| GAAAGATA | 0.189 |
| AGTGGGCG | 0.0881 |
| CGTACTAA | 0.234 |
